Laboratory results reported in PubChem BioAssay AID488969 (Vanderbilt High Throughput Screening Facility, 2010).
Over roughly 110,000 compounds, “z-score” has its median near -0.1; the highest 2% begin near 2. This is one part of the list. The source made the active and inactive calls.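 The calls were made as follows: active = z-score in the third read window above 3 or below -3; inactive = the rest.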

These compounds were tested against Metabotropic glutamate receptor 8 (Rattus norvegicus) (UniProt P70579) (assay: mGluR8 Gi/Go-coupled signaling modulation – cell-based, rat, thallium flux, HTS, primary screen (AID 488969)). Details: HEK293 rat mGluR8, GIRK (G protein-gated inwardly rectifying potassium channel) thallium flux, FluoZin2; at 10 µM; stronger effect = higher value; submaximal glutamate (EC20) added with thallium.
Chain of UniProt P70579 (P70579 whole entry, looked up): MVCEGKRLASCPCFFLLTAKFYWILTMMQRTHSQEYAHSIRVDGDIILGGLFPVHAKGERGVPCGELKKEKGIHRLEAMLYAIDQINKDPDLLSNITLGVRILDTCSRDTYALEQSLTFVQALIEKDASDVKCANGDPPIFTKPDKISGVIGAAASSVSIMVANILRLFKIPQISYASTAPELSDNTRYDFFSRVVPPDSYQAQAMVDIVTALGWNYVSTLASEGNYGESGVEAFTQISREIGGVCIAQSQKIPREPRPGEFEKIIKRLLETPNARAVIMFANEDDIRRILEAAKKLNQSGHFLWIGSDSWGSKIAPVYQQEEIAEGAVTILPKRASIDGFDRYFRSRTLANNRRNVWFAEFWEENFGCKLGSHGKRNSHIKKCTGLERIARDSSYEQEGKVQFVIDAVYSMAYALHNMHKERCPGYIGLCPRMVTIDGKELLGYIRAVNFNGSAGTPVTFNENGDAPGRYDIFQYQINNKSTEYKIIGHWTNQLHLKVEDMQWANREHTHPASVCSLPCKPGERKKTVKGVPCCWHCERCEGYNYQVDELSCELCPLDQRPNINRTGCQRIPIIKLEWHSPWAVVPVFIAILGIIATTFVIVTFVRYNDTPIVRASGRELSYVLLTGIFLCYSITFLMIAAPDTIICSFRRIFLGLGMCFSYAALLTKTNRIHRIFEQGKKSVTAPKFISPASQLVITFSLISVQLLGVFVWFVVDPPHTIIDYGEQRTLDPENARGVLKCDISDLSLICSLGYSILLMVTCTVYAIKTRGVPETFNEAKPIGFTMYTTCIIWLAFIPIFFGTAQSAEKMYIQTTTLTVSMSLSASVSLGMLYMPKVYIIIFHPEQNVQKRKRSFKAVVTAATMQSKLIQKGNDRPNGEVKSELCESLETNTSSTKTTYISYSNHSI

Compound	z-score
CCc1cccc2c(C=C(C#N)C#N)cn(CC(=O)N3CCCCCC3)c12	0.134
Cc1c(CCO)c(=O)n(C)n1C(=O)c1ccc(Cl)cc1	-0.195
O=C(/C=C/c1ccc(Cl)cc1Cl)NCCSc1ccccc1	0.133
CC(C)N(Cc1nc(-c2ccccc2)no1)C(=O)CSc1ccccc1	-2.54
CN(Cc1ccccc1)c1ccc(S(=O)(=O)N2CCOCC2)cn1	0.115
Fc1ccc(CSc2ccc3nnc(-c4cccs4)n3n2)cc1	-0.335
OCC(CO)(CO)NCc1ccc(-c2ccccc2)cc1	0.599
CCCC(=O)Nc1ccc(C(=O)Nc2cc(C(F)(F)F)ccc2Cl)cc1	-0.386
CN(C)CCNc1nc(-c2ccco2)c2c(c1C#N)CC(C)(C)OC2	0.397
COc1ccc(OC)c(/C=N/NC(=O)c2ccc(Cn3cc([N+](=O)[O-])cn3)o2)c1	0.103
CCOC(=O)C1CCCN(S(=O)(=O)c2cccc3cccnc23)C1 (centres undefined)	-0.188
CCCCCCC(=O)N/N=C/c1ccco1	-0.0628
CCOCC(=O)Nc1ccc(F)c(F)c1	0.128
CCOc1ccc2nc(NC(=O)CN3CCN(c4ccccn4)CC3)sc2c1	0.215
O=C(COC(=O)c1cc(=O)[nH]c(=O)[nH]1)NCc1ccccc1	0.00697
CCc1ccc2[nH]c(=O)c(CN(CCCO)C(=O)NCc3ccccc3)cc2c1	0.00958
O=C(NCc1cn2ccccc2n1)c1ccco1	0.209
CC(C)OC(=O)c1cccc(C(=O)Oc2ccc(Br)cc2)n1	-0.331
COC(=O)c1cc(Br)c(=O)n(-c2cccc(F)c2)c1	-0.0201
Cc1ccc(S(=O)(=O)/N=C(/NC(=S)Nc2cccc(C)c2)c2ccccc2)cc1	0.579
Cc1ccc(SCc2nc(-c3ccncc3)no2)cc1	-0.289
Cc1nn(C(=O)N2CCOCC2)c(C)c1C	0.408

Compound	z-score
Cc1ccc(OCCOc2cccc(Br)c2)c([N+](=O)[O-])n1	-0.456
CC1(C)Oc2ccc(C(=O)NC3CCCC3)cc2N(CC(=O)NC2CCCC2)C1=O	-0.495
COc1ccc(C2CC2/C(C)=N/OC(=O)c2cccs2)cc1 (centres undefined)	-1.24
CCOC(=O)N1CCN(c2c(NCc3ccc(N(C)C)cc3)c(=O)c2=O)CC1	-0.142
Cc1ccccc1NC(=O)C(NS(=O)(=O)c1ccc2c(c1)c(=O)n(C)c(=O)n2C)c1ccccc1 (centres undefined)	-0.00301
CCOc1ccccc1NC(=O)COC(=O)C(CC(C)C)N1C(=O)C2CC=CCC2C1=O (centres undefined)	-0.869
O=C(NC(=S)NCCN1CCOCC1)c1ccccc1Br	0.00751
O=C(Nc1ccc2nc(-c3ccccc3)oc2c1)c1ccco1	-0.126
COC(=O)CC(NC(=O)c1ccc(C)cc1)c1ccc2c(c1)OCO2 (centres undefined)	0.306
Cc1ccc(NC(=O)OCc2cn(-c3ccc(Cl)cc3)nn2)cc1	-0.000325
COc1ccc(C2=NN(C(=O)c3cccc([N+](=O)[O-])c3)C(c3cccc([N+](=O)[O-])c3)C2)cc1 (centres undefined)	0.0474
CC1(C)OC(=O)N(Cc2ccco2)C1(C)O (centres undefined)	0.594
Cc1nnsc1C(=O)NC(C)C12CC3CC(CC(C3)C1)C2 (centres undefined)	-0.0504
O=C(C1=C(O)C(=O)N(Cc2ccccc2)C1c1ccco1)c1ccco1 (centres undefined)	-1.5
COc1cccc(N2C(=O)CC(N3CCC(c4nc5ccccc5[nH]4)CC3)C2=O)c1 (centres undefined)	0.0245
CCN(CC)S(=O)(=O)c1ccc(-c2nnc(SCC(=O)c3ccc(OC)cc3)o2)cc1	0.208
CCCN1C/C(=C/c2cccc([N+](=O)[O-])c2)C(=O)/C(=C/c2cccc([N+](=O)[O-])c2)C1	-0.883
NC(=S)n1[nH]c(-c2ccc([N+](=O)[O-])cc2)c(N=Nc2ccc(O)cc2)c1=O	0.0796
Cc1ccc(COn2c(-c3ccc(Cl)cc3Cl)nc3ncccc32)cc1	-1.37
CCCCN(C(=O)CC(c1ccccc1)c1ccccc1)c1c(N)n(CCC)c(=O)[nH]c1=O	-0.288
COCCn1c(=O)[nH]c(=O)c2c(C(F)(F)F)cc(-c3cccs3)nc21	-0.821
Cc1cc2cc(OCC(=O)O)ccc2n1C	0.494

Compound	z-score
CC(=O)NC1CC2CCCC(C1)N2S(=O)(=O)c1ccccc1 (centres undefined)	-0.0145
CC1CN(C(c2cccs2)c2sc3ncnn3c2O)CC(C)O1 (centres undefined)	0.26
Cc1cc(NC(=O)c2ccc(C)s2)n(-c2ccccc2)n1	0.239
Cc1ccc(S(=O)(=O)N/N=C\c2cc3c(cc2[N+](=O)[O-])OCO3)cc1	0.0514
O=C(O)c1ccc2c(c1)N(Cc1ccccc1F)C(=O)c1ccccc1S2=O (centres undefined)	0.0828
CCCCCOc1ccc(NC(=O)C(=O)NCCCn2ccnc2)cc1	-0.188
O=C(Nc1ccccc1C(=O)Nc1ccc2c(c1)OCO2)c1ccco1	-0.558
COc1ccc(CNC(=O)CSc2n[nH]c(C)c2[N+](=O)[O-])cc1	-0.119
CC1=CC(=NOC(=O)/C=C/c2ccccc2)C=C(C)C1=O	-0.325
O=C(NC(Nc1nc2ccc([N+](=O)[O-])cc2s1)(C(F)(F)F)C(F)(F)F)c1cccnc1	0.978
COc1ccccc1C(=O)Nc1ccc2c(c1)nc1n2CCSC1	-0.665
O=C(c1ccncc1)c1ccc(NS(=O)(=O)c2ccc(Br)s2)cc1	-0.141
OCCNCCCCOc1ccc(F)cc1	0.17
Cc1ccc(O)c(NC(=O)c2ccco2)c1	-0.223
CCOc1ccc2cc(C#N)c(SCC(=O)N3CCC(C)CC3)nc2c1	-0.375
C/C(=N\NC(=S)Nc1ccc(F)cc1)C1CC1	-0.155
Cc1ccc(NC(=O)C2CCN(S(=O)(=O)c3cccs3)CC2)cc1C	0.256
Cc1ccc(S(=O)(=O)/N=S(\C)CC2CC2(Cl)Cl)cc1 (centres undefined)	-0.129
C=C(C)C1Cc2c(C)nn(-c3nc(C)cc(C)n3)c2C1 (centres undefined)	-0.968
CCCc1nc2sc(C(=O)OCC)c(N)c2c2c1COC(C)(C)C2	-0.0164
CCOC(=O)CCCNC(=O)CCCNC(=O)C(c1ccccc1)c1ccccc1	0.296
CCN1CNC(=S)N(C(C)c2ccccc2)C1 (centres undefined)	1.45

Compound	z-score
CC1=C(C(=O)OC(C)(C)C)C(c2cccs2)NC(=O)N1 (centres undefined)	-0.249
C/C(=N\NC(=O)c1cc(C(C)C)[nH]n1)c1ccco1	0.342
O=[N+]([O-])c1ccc(Cl)c(/C=N/N2CCN(Cc3ccccc3Cl)CC2)c1	0.00613
CC(C)(C)c1ccc(C(=O)N2CCN(c3nc4ccccc4o3)CC2)cc1	0.658
Cn1c(CCCOc2ccc(Cl)cc2Cl)nnc1SCC(=O)Nc1nccs1	-0.474
Cc1n[nH]c(C)c1CCCOc1ccccc1	0.185
Cc1ccc(-c2nc3ccccc3n3c(C)nnc23)cc1	-0.0953
COc1ccc(C)cc1NC(=O)C1CCCN1S(=O)(=O)c1ccc2c(c1)CCC(=O)N2 (centres undefined)	-0.304
CCCCn1c2c(c(=O)n(C)c1=O)C(c1ccc(OC)cc1)N1CCCCCC1=N2 (centres undefined)	-0.418
COc1ccc(-c2csc(NC(C)=O)n2)cc1OC	0.168
Cc1ccc(N(CC(=O)N/N=C/c2cc(C)n(-c3ccccc3)c2C)S(C)(=O)=O)c(C)c1	-0.508
COC(=O)c1cc(=O)nc2sccn12	-0.417
Cc1cccc(C)c1N=Cc1c(O)n(-c2nccs2)c(=O)c2ccccc12	-1.27
CC[C@H](C)[C@H](NS(=O)(=O)c1ccc(C)cc1)C(=O)N1CCC(C(=O)N[C@@H](C)C(=O)O)CC1	-0.165
COc1ccc(Cl)cc1C(=O)n1nc(C)cc1C	-0.95
Cc1ccc(C2(C(F)(F)F)N=C3Sc4cc(C)cc(C)c4N3C(=O)N2)cc1 (centres undefined)	0.0193
CC(C)(C)c1ccc(OCC(O)CNC(=O)c2ccccc2C(=O)O)cc1 (centres undefined)	-0.0202
CCCCOc1ccc(Cl)cc1CSc1nnc(C)n1N	-0.255
CCOc1cc(-c2cc(-c3ccc(OC)cc3)nc(N)c2C#N)ccc1O	-0.483
O=[N+]([O-])c1ccc(C(=S)N2CCN(Cc3ccccc3)CC2)cc1	-0.261
CCc1ccc2c(c1)C1(NN=C(c3ccccc3)S1)C(=O)N2 (centres undefined)	0.104
COC(=O)c1ccc(C(C(=O)NC2CCCCC2)N(Cc2ccc(F)cc2)C(=O)Cc2cccs2)cc1 (centres undefined)	-0.291

Compound	z-score
Cc1cc(C(=O)N2CCN(c3ccccc3)CC2)no1	0.106
NC(=O)c1ccccc1N=Cc1ccccn1	-0.317
Cc1sc2nc(SCc3nc(-c4ccccc4)no3)n(-c3ccccc3)c(=O)c2c1C	-0.000241
COc1ccccc1-c1nc(C#N)c(N2CCC(C(N)=O)CC2)o1	-0.232
CC1CCCN(c2nc3ccccc3nc2C(C#N)S(=O)(=O)c2ccccc2)C1 (centres undefined)	-0.527
Cc1nc(NCCNC(=O)c2ccco2)c2c(C)c(C)sc2n1	0.136
O=C(NC(=S)N1CCN(Cc2ccc3c(c2)OCO3)CC1)c1cccc(Br)c1	active: 9.35
O=[N+]([O-])c1cccc(/C(=N/N=C/c2ccccc2Br)C23CN4CN(CN(C4)C2)C3)c1	-0.273
CC(C)c1ccc(-c2nn(-c3ccccc3)cc2C2C(C#N)=C(N)OC3=C2C(=O)CC(C)(C)C3)cc1 (centres undefined)	0.0702
COc1cc(CN2CCN(c3cccc(Cl)c3)CC2)cc(OC)c1OC	-0.348
COCCn1cc(C(=O)c2ccccc2OCC(=O)Nc2cc(C)on2)cc(C#N)c1=O	-0.208
O=C(CCCCCNc1nc(=S)[nH]c2ccccc12)N1CCN(c2ccccn2)CC1	-0.132
Cc1oc(-c2ccc(Cl)cc2)nc1CN1CCC(C(=O)NCCCN2CCOCC2)CC1	-0.804
Cc1cc(C)nc(SCCN2CCOCC2)n1	0.716
Clc1cc(Cl)c(OCc2nc(-c3ccccn3)no2)cc1Cl	0.246
CN(CCCCCNC(=O)/C=N/O)Cc1ccccc1	-0.328
C=CCc1ccccc1OCC(O)CN(CC)CC (centres undefined)	0.0462
O=C(O)CCC(=O)Nc1ccccc1C(=O)NCc1ccco1	0.0547
Cc1c(C(=O)NCCCN2CCOCC2)oc2c1C1(CCC2)SCCS1	-0.375
CCSc1nc(N2CCOCC2)c2c(c1C#N)CC(C)(C)N(C)C2	-0.398
CCCCCCS(=O)[C@H]1CS(=O)(=O)C[C@@H]1S(=O)CCCCCC (some centres undefined)	-0.0413
